The entries are a selection whose mix differs from that of the whole data set. The list includes weakly bound sequences.

This experiment has as its target T1, GST-Aq-NF-kB (UniProt A9Y5G7).
T1 sequence: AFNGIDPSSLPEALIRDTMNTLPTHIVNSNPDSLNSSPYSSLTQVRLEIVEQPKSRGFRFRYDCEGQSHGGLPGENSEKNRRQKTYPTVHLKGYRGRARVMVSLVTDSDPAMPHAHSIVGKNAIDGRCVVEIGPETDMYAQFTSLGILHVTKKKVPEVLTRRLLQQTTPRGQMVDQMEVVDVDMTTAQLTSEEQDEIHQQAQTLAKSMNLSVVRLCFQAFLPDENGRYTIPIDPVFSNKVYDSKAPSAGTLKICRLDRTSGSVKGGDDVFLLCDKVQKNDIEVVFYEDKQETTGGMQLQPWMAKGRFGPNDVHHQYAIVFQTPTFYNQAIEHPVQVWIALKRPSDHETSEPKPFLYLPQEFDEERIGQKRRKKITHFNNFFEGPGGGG
As to the kind of experiment: protein-binding microarray (PBM). Particulars: PBM: ~300 nM protein, 6 mM HEPES pH 7.8, 80 mM KCl, 0.5 mM EDTA, 0.5 mM EGTA, 6% glycerol, 35 ng/ul poly-dIdC, 1% milk, 1 h, room temperature; Ap Aiptasia and Nv Nematostella (sea anemones) / Co Capsaspora / Aq Amphimedon (sponge) / Dm Drosophila / Hu human; RHD is the Rel homology domain; high values mean tight binding; most listed sequences are background and not binding sites; double strand, one strand shown.
“CCGATTAACATCAACACCGGCTTTGATGTTAATCGGGTCTTGATTCGCTTGACGCTGCTG” came in with a binding signal of -0.256 z-score.
Next, “CCGATTAACATCAGGGAGATACCTGATGTTAATCGGGTCTTGATTCGCTTGACGCTGCTG”: 7.69 z-score; “CCGATTAACATCATGATATCCGGTGATGTTAATCGGGTCTTGATTCGCTTGACGCTGCTG”: 0.557 z-score.
Next, “CCGATTAACATCATTTCTTACGGTGATGTTAATCGGGTCTTGATTCGCTTGACGCTGCTG”: 0.58 z-score; “CCGATTAACATCACGTTCTTTCCTGATGTTAATCGGGTCTTGATTCGCTTGACGCTGCTG”: 0.667 z-score.
Next, “CCGATTAACATCACCGCAGCATGTGATGTTAATCGGGTCTTGATTCGCTTGACGCTGCTG”: 0.016 z-score; “CCGATTAACATCAAGGATATTCCTGATGTTAATCGGGTCTTGATTCGCTTGACGCTGCTG”: 0.827 z-score.
Sequence “CCGATTAACATCAGAAAGTTTCCTGATGTTAATCGGGTCTTGATTCGCTTGACGCTGCTG” gave a binding signal of 1.06 z-score.
In the case of “CCGATTAACATCAAAAATTCCATTGATGTTAATCGGGTCTTGATTCGCTTGACGCTGCTG”, the binding signal stood at 0.994 z-score.
Sequence “CCGATTAACATCAACAACGGTTCTGATGTTAATCGGGTCTTGATTCGCTTGACGCTGCTG” yielded a binding signal of -0.5 z-score.
Next, “CCGATTAACATCACGAAAATTCCTGATGTTAATCGGGTCTTGATTCGCTTGACGCTGCTG”: 1.41 z-score; “CCGATTAACATCACGTACTTTCCTGATGTTAATCGGGTCTTGATTCGCTTGACGCTGCTG”: 2.39 z-score.
The sequence “CCGATTAACATCAAAAAACCGTTTGATGTTAATCGGGTCTTGATTCGCTTGACGCTGCTG” registered a binding signal of 0.345 z-score.
On to “CCGATTAACATCAGTGAATTCCATGATGTTAATCGGGTCTTGATTCGCTTGACGCTGCTG”, for which the binding signal came out at 0.33 z-score.
As for “CCGATTAACATCATCCCTCTGAATGATGTTAATCGGGTCTTGATTCGCTTGACGCTGCTG”, the figure is -0.00603 z-score; as for “CCGATTAACATCAATAAATGTACTGATGTTAATCGGGTCTTGATTCGCTTGACGCTGCTG”, -0.233 z-score; as for “CCGATTAACATCAGGAGAGTCCATGATGTTAATCGGGTCTTGATTCGCTTGACGCTGCTG”, 0.863 z-score.
Next, “CCGATTAACATCATGGTGCTTAATGATGTTAATCGGGTCTTGATTCGCTTGACGCTGCTG”: -0.184 z-score; “CCGATTAACATCAAATATTTTCCTGATGTTAATCGGGTCTTGATTCGCTTGACGCTGCTG”: 0.432 z-score; “CCGATTAACATCAGGAAAATCACTGATGTTAATCGGGTCTTGATTCGCTTGACGCTGCTG”: 0.492 z-score.
Regarding “CCGATTAACATCAAAAAATTTCCTGATGTTAATCGGGTCTTGATTCGCTTGACGCTGCTG”, the binding signal was 2.22 z-score.
“CCGATTAACATCAGGGACTGCCCTGATGTTAATCGGGTCTTGATTCGCTTGACGCTGCTG” registered a binding signal of 7.19 z-score.
As for “CCGATTAACATCACTGAACGCGTTGATGTTAATCGGGTCTTGATTCGCTTGACGCTGCTG”, the figure is -0.553 z-score.
Next, “CCGATTAACATCATGTTTAGTTTTGATGTTAATCGGGTCTTGATTCGCTTGACGCTGCTG”: -0.393 z-score; “CCGATTAACATCACGGAAAATACTGATGTTAATCGGGTCTTGATTCGCTTGACGCTGCTG”: 0.988 z-score; “CCGATTAACATCACAGAAAATCCTGATGTTAATCGGGTCTTGATTCGCTTGACGCTGCTG”: 0.473 z-score.
Next, “CCGATTAACATCAGGAATTGCCATGATGTTAATCGGGTCTTGATTCGCTTGACGCTGCTG”: 1.02 z-score.
Take “CCGATTAACATCAGGAAAAATCATGATGTTAATCGGGTCTTGATTCGCTTGACGCTGCTG”: the binding signal was found to be 0.182 z-score.
Sequence “CCGATTAACATCATTACAGGCCGTGATGTTAATCGGGTCTTGATTCGCTTGACGCTGCTG” yielded a binding signal of -0.306 z-score.
Next, “CCGATTAACATCAGCTGTTAGCCTGATGTTAATCGGGTCTTGATTCGCTTGACGCTGCTG”: -0.445 z-score.
Next, “CCGATTAACATCAGAGTAATTCCTGATGTTAATCGGGTCTTGATTCGCTTGACGCTGCTG”: 0.455 z-score.
As for “CCGATTAACATCAATAGCTAGTATGATGTTAATCGGGTCTTGATTCGCTTGACGCTGCTG”, the figure is -0.402 z-score.
Regarding “CCGATTAACATCAAAAACTACCCTGATGTTAATCGGGTCTTGATTCGCTTGACGCTGCTG”, the binding signal turned out to be 4.72 z-score.
The sequence “CCGATTAACATCAAAGGATTTCCTGATGTTAATCGGGTCTTGATTCGCTTGACGCTGCTG” displayed a binding signal of 1.01 z-score.
Sequence “CCGATTAACATCAAGTACAACGGTGATGTTAATCGGGTCTTGATTCGCTTGACGCTGCTG” gave a binding signal of 0.447 z-score.
As for “CCGATTAACATCAAGAATTCCCCTGATGTTAATCGGGTCTTGATTCGCTTGACGCTGCTG”, the figure is 8.32 z-score.
The sequence “CCGATTAACATCACAAATTTTCCTGATGTTAATCGGGTCTTGATTCGCTTGACGCTGCTG” yielded a binding signal of 0.791 z-score.
For the sequence “CCGATTAACATCAGGGAACTCCCTGATGTTAATCGGGTCTTGATTCGCTTGACGCTGCTG”, the binding signal is 9.76 z-score.
The sequence “CCGATTAACATCAGGGACGTCCCTGATGTTAATCGGGTCTTGATTCGCTTGACGCTGCTG” registered a binding signal of 8.52 z-score.
